Experiment [1] deals with T1, human B7-1Fc fusion protein (human, UniProt P33681 35-242).
T1 construct: Used biotinylated in ELISA; also called B7-1 Ig; B7-1 Ig fusion protein
T1 sequence (looked up): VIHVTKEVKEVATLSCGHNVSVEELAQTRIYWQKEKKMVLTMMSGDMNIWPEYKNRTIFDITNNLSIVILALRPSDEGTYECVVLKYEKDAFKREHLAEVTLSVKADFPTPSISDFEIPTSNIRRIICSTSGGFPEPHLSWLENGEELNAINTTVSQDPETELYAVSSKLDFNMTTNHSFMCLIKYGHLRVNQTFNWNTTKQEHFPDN
The experiment in a line: ELISA, summary grade.

In experiment [2] the target is T2, human B7-2Fc fusion protein (human, UniProt P42081 24-245, limits assumed).
T2 construct: Used biotinylated in ELISA; also called hB7-2Fc; CD86
T2 sequence (looked up): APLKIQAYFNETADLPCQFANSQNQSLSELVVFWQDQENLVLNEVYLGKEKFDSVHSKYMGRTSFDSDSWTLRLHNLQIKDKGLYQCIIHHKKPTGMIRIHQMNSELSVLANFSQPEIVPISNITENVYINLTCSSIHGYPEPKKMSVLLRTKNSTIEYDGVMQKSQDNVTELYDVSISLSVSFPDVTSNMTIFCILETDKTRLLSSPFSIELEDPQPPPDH
The experiment in a line: ELISA, summary grade.

B1: CTLA-4Fc mutant protein M9 (Fc fusion)
chain: MHVAQPAVVLASSRGIASFVCEYASPGKATEVRVTVLRQADSQVTEVCAATYMMGNELTFLDDSICTGTSSGNQVNLTIQGLRAMVDTGLYICKVELMYPPPYYLGIGNGTQIYVIDPEPCPDSDQ[sequence of human IgG1 Fc with changes not given]
notes: also called Mutant 9
Turning to B1, in experiment [1], the binding result is listed as “no binding”.

B2: CTLA-4Fc mutant protein M10 (Fc fusion)
chain: MHVAQPAVVLASSRGIASFVCEYASPGKATEVRVTVLRQADSQVTEVCAATYMMGNELTFLDDSICTGTSSGNQVNLTIQGLRAMMDTGLYLCKVELMYPPPYYLGIGNGTQIYVIDPEPCPDSDQ[sequence of human IgG1 Fc with changes not given]
notes: also called Mutant 10
B2: the binding result in experiment [1] was “no binding”.

B3: CTLA-4Fc mutant protein M1 (Fc fusion)
chain: IQVTQPSVVLASSRGIASFVCEYASPGKATEVRVTVLRQADSQVTEVCAATYMMGNELTFLDDSICTGTSSGNQVNLTIQGLRAMDTGLYICKVELMYPPPYYLGIGNGTQIYVIDPEPCPDSDQ[sequence of human IgG1 Fc with changes not given]
notes: mature protein with IgG1 Fc; also called Mutant 1
As for B3, the binding result in experiment [1] is “binds”.

B4: CTLA-4Fc mutant protein M17-3 (Fc fusion)
chain: MHVAQPAVVLASSRGIASFVCEYASPGKYTEVRVTVLRQADSQVTEVCAATYMMGNELTFLDDSICTGTSSGNQVNLTIQGLRAMDTGLYICKVELMYPPPYFDGIGNGTQIYVIDPEPCPDSDQ[sequence of human IgG1 Fc with changes not given]
Consider B4, for which the binding result in experiment [1] was “binds”.

B5: CTLA-4Fc mutant protein M7 (Fc fusion)
chain: MHVAQPAVVLASSRGIASFVCEYASPGKATEVRVTVLRQADSQVTEVCAATYMMGNELTFLDYPFCSGTSSGNQVNLTIQGLRAMDTGLYICKVELMYPPPYYLGIGNGTQIYVIDPEPCPDSDQ[sequence of human IgG1 Fc with changes not given]
notes: also called Mutant 7
With B5, the binding result in experiment [1] was “binds”.

B6: CTLA-4Fc mutant protein M17-4 (Fc fusion)
chain: MHVAQPAVVLASSRGIASFVCEYASPGKYTEVRVTVLRQADSQVTEVCAATYMMGNELTFLDDSICTGTSSGNQVNLTIQGLRAMDTGLYICKVELMYPPPYFVGIGNGTQIYVIDPEPCPDSDQ[sequence of human IgG1 Fc with changes not given]
Regarding B6, the binding result in experiment [1] and in experiment [2] was “binds” throughout.

B7: CTLA-4Fc mutant protein M8 (Fc fusion)
chain: MHVAQPAVVLASSRGIASFVCEYASPGKATEVRVTVLRQADSQVTEVCAATYMMGNELTFLDDSICTGTFNESRVNLTIQGLRAMDTGLYICKVELMYPPPYYLGIGNGTQIYVIDPEPCPDSDQ[sequence of human IgG1 Fc with changes not given]
notes: also called Mutant 8
On to B7, for which the binding result in experiment [1] is given as “binds”.

B8: CTLA-4Fc mutant protein M17-2 (Fc fusion)
chain: MHVAQPAVVLASSRGIASFVCEYASPGKYTEVRVTVLRQADSQVTEVCAATYMMGNELTFLDDSICTGTSSGNQVNLTIQGLRAMDTGLYICKVELMYPPPYFEGIGNGTQIYVIDPEPCPDSDQ[sequence of human IgG1 Fc with changes not given]
As for B8, the binding result in experiment [1] and in experiment [2] was “binds” each time.

B9: CTLA-4Fc mutant protein M14 (Fc fusion)
chain: IQVTQPSVVLASSRGIASFVCEYASPGKATEVRVTVLRQADSQVTEVCAATFTEKNTVGFLDDSICTGTSSGNQVNLTIQGLRAMDTGLYICKVELMYPPPYFVGMGNGTQIYVIDPEPCPDSDQ[sequence of human IgG1 Fc with changes not given]
For B9, in experiment [1], the binding result is listed as “binds”.

B10: CTLA-4Fc mutant protein M17 (Fc fusion)
chain: MHVAQPAVVLASSRGIASFVCEYASPGKYTEVRVTVLRQADSQVTEVCAATYMMGNELTFLDDSICTGTSSGNQVNLTIQGLRAMDTGLYICKVELMYPPPYFEGMGNGTQIYVIDPEPCPDSDQ[sequence of human IgG1 Fc with changes not given]
B10: the binding result in experiment [1] and in experiment [2] was “binds” throughout.

B11: CTLA-4Fc mutant protein M3 (Fc fusion)
chain: MHVAQPAVVLASSRGIASFVCEYASPSHNTDEVRVTVLRQADSQVTEVCAATYMMGNELTFLDDSICTGTSSGNQVNLTIQGLRAMDTGLYICKVELMYPPPYYLGIGNGTQIYVIDPEPCPDSDQ[sequence of human IgG1 Fc with changes not given]
notes: also called Mutant 3
Consider B11, for which the binding result in experiment [1] is reported as “binds”.

B12: CTLA-4Fc mutant protein M12 (Fc fusion)
chain: IQVTQPSVVLASSRGIASFVCEYASPGKATEVRVTVLRQADSQVTEVCAATFTEKNTVGFLDDSICTGTFNESRVNLTIQGLRAMDTGLYICKVELMYPPPYFVGMGNGTQIYVIDPEPCPDSDQ[sequence of human IgG1 Fc with changes not given]
Take B12: in experiment [1], the binding result is given as “binds”.

B13: CTLA-4Fc mutant protein M5 (Fc fusion)
chain: MHVAQPAVVLASSRGIASFVCEYASPGKATEVRVTVLRQADSQVTEVCAATFTEKNTVGFLDDSICTGTSSGNQVNLTIQGLRAMDTGLYICKVELMYPPPYYLGIGNGTQIYVIDPEPCPDSDQ[sequence of human IgG1 Fc with changes not given]
notes: also called Mutant 5
On to B13, for which the binding result in experiment [1] is given as “binds”.

For the origin of these results see US20190263889A1 (ONCOC4, published 2019).
